Source: PMC5727121
No constants are given. Whether binding was seen depends on the method and setting. For some assays here: In cells and extracts the contact can be indirect. Some results given as binding are weak or reduced against the parent protein; the word gives no strength. For some assays here: Sequences can lack the tags named with a protein.

Amino acid sequences for entries named in this document (tags omitted). Residues count along the entry.
UniProt P19490, residues 19-907: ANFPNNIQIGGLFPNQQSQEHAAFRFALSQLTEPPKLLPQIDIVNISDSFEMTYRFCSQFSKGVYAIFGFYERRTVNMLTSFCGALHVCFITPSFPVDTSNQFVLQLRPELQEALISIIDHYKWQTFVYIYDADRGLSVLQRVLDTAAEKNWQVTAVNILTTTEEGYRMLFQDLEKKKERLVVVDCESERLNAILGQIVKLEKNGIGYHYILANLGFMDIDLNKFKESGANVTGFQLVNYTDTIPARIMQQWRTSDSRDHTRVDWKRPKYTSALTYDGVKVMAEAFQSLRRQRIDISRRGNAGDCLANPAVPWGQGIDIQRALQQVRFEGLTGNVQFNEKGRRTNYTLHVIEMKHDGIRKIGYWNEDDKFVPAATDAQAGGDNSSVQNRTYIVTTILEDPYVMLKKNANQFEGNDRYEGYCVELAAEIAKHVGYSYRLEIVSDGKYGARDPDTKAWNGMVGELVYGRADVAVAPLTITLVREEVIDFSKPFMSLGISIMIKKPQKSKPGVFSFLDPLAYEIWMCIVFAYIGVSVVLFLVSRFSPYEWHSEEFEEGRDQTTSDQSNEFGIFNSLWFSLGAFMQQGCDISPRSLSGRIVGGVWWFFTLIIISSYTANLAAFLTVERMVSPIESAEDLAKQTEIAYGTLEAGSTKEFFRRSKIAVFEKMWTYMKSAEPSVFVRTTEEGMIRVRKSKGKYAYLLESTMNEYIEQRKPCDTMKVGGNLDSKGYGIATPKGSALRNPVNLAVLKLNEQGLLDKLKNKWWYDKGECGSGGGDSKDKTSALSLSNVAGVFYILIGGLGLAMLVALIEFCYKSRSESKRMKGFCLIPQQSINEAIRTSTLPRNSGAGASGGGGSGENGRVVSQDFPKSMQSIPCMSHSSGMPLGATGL
UniProt P19491, residues 22-883: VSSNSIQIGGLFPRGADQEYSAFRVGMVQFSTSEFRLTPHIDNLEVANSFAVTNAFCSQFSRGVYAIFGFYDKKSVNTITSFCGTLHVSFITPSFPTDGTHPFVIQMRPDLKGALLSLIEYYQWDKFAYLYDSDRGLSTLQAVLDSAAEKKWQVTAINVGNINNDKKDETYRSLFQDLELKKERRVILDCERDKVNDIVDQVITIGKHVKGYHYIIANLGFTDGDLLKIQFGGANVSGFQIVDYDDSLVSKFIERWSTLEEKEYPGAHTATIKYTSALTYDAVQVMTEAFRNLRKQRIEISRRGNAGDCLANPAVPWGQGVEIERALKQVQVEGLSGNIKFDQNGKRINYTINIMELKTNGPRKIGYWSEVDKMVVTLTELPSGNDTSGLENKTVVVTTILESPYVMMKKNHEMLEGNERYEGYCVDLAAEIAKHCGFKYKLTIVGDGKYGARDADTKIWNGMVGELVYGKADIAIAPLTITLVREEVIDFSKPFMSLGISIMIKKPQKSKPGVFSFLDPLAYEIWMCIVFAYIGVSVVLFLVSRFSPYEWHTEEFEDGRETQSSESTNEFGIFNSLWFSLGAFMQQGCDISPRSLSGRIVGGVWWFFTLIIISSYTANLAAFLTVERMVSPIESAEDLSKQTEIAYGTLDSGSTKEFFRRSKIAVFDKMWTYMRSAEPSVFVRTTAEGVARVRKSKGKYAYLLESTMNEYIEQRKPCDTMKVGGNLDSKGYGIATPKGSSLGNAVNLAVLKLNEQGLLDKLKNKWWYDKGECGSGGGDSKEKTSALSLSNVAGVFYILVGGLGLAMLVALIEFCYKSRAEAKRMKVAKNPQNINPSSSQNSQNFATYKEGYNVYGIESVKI
UniProt Q61768: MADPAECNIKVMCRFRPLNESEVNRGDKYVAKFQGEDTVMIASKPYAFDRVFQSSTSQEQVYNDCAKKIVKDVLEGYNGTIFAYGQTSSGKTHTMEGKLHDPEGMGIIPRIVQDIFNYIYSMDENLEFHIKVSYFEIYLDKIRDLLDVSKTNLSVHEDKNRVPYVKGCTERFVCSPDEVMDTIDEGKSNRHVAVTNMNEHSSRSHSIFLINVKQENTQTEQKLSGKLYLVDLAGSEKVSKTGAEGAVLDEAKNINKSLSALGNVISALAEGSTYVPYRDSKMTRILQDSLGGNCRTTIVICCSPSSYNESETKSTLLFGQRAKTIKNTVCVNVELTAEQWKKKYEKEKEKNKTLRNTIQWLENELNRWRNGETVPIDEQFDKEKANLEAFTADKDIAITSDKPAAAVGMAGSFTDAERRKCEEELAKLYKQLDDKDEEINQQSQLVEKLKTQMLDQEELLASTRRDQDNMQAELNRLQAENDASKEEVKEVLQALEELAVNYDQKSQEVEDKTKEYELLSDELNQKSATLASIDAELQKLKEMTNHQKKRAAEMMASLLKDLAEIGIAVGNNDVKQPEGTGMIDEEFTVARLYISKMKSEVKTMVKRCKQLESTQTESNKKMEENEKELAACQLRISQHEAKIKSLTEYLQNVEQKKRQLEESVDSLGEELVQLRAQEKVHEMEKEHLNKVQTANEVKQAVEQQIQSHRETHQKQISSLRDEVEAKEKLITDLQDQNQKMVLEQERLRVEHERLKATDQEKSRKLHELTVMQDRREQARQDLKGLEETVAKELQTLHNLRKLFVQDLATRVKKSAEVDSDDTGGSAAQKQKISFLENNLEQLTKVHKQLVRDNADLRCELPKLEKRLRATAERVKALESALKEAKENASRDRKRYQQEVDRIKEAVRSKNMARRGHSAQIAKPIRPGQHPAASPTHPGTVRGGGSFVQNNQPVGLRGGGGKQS

Legend:
[1] = biological target: HA-tagged Ferric Chelate Reductase 1 Like protein (HA-FRRS1L) (mouse) (UniProt B1AXV0); test: co-IP; dimerization experiment: HEK cells co-transfected with HA-FRRS1L and FRRS1L-Myc for 48 h; lysates immunoprecipitated with an anti-HA antibody; blotted with anti-Myc
[2] = biological target: Flag-tagged GluA1 (Flag-GluA1) subunit of the AMPAR (UniProt P19490); test: co-IP; HEK cells co-transfected with HA-FRRS1L and Flag-GluA1 or Flag-GluA2(Q); lysis buffer 25 mM Tris pH 7.4, 1% Triton X-100, 150 mM NaCl, 5% glycerol, 1 mM EDTA; anti-Flag M2 affinity beads overnight at 4°C; blotted with anti-HA
[3] = biological target: Flag-tagged GluA2 (Flag-GluA2 (Q)) subunit of the AMPAR (UniProt P19491); test: as above
[4] = biological target: kinesin heavy chain KIF5B (mouse (endogenous in hippocampus)) (UniProt Q61768); test: vesicle immunoisolation; detergent-free adult mouse hippocampal homogenate, 8/35 interphase of a sucrose step gradient; incubated overnight with dynein (DIC) or kinesin (KIF5B) antibody, then protein G dynabeads; Western blot of what came down with the intact vesicles

binding [1] | binding [2] | binding [3] | binding [4] | Binder
no binding | binds | binds | – | HA-tagged Ferric Chelate Reductase 1 Like protein (HA-FRRS1L) (protein, UniProt B1AXV0 29-293) SPADDSAGPGGRGPRGRARGDAGADEAVPRHDSSYGTFASEFYDLRYLSEEGYPFPTAPPVDPFAKIKVEDCGRTKGCFRYGKPGCNAETCDYFLSYRMIGADVEFELSADTDGWVAVGFSSDKKMGGDDVMACVHDDNGRVRIQHFYNVGQWAKEVQRNPARDEEGVFENNRVTCRFKRPVNVPRDETIVDLHLSWYYLFAWGPAIQGAITRHDIDSPPASERVVSIYKYEDIFMPSAAYQTFSSPFCLLLIVALTFYLLMGTP
– | – | – | no binding | endogenous (native) FRRS1L (protein, UniProt B1AXV0 29-293) SPADDSAGPGGRGPRGRARGDAGADEAVPRHDSSYGTFASEFYDLRYLSEEGYPFPTAPPVDPFAKIKVEDCGRTKGCFRYGKPGCNAETCDYFLSYRMIGADVEFELSADTDGWVAVGFSSDKKMGGDDVMACVHDDNGRVRIQHFYNVGQWAKEVQRNPARDEEGVFENNRVTCRFKRPVNVPRDETIVDLHLSWYYLFAWGPAIQGAITRHDIDSPPASERVVSIYKYEDIFMPSAAYQTFSSPFCLLLIVALTFYLLMGTP
– | – | – | no binding | TARP γ8 (protein, UniProt Q8VHW2 1-423) MESLKRWNEERGLWCEKGVQVLLTTIGAFSAFGLMTIAISTDYWLYTRALICNTTNLTAGDDGPPHRGGSGSSEKKDPGGLTHSGLWRICCLEGLKRGVCVKINHFPEDTDYDHDSAEYLLRVVRASSIFPILSAILLLLGGVCVAASRVYKSKRNIILGAGILFVAAGLSNIIGVIVYISANAGEPGPKRDEEKKNHYSYGWSFYFGGLSFILAEVIGVLAVNIYIERSREAHCQSRSDLLKAGGGAGGSGGSGPSAILRLPSYRFRYRRRSRSSSRGSSEASPSRDASPGGPGGPGFASTDISMYTLSRDPSKGSVAAGLASAGGGGSGAGVGAYGGAAGAAGGGGAGSERDRGSSAGFLTLHNAFPKEAASGVTVTVTGPPAAPAPAPAPPAPAAPAPGTLSKEAAASNTNTLNRKTTPV
